# Lines with a small IC50 respond at low doses; a fit beyond the top or the lowest dose is shown as a bound at that dose. AUC is the area under the same curve over the 256-fold range up to the top dose, as a fraction; it is 1 without any effect and falls as sensitivity rises. Where the top dose is marked as inferred, it was derived from the fitted curves, not read from the paper. For some assays here: Drugs with an entry number were screened twice under separate entries, and the two screens often disagree.
# What was measured:
# Assay in all cases: Viability of human cancer cell lines after 72 h of drug (GDSC screen)
# BMS-536924 = compound: Cc1cc(N2CCOCC2)cc2[nH]c(-c3c(NC[C@@H](O)c4cccc(Cl)c4)cc[nH]c3=O)nc12 [BMS-536924]; settings: top dose 4 µM; screen: GDSC drug entry 1091; top dose inferred
# Method: (§1)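 Human cancer cell lines in 384-well plates, medium with 10% serum, drug for 72 h over a 256-fold dose range (nine 2-fold or five 4-fold steps up to the top dose). Adherent lines were fixed and stained with the nucleic acid dye Syto60, suspension lines read with resazurin; signal relative to control wells, capped at 0 and 100%. One two-parameter sigmoid per drug and line, fitted in a mixed model over all curves with the slope shared within a line.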
# BIRB 0796 = compound: Cc1ccc(-n2nc(C(C)(C)C)cc2NC(=O)Nc2ccc(OCCN3CCOCC3)c3ccccc23)cc1 [BIRB 0796]; settings: top dose 10 µM; top dose inferred
# Method: as §1
# Shikonin = compound: CC(C)=CC[C@@H](O)C1=CC(=O)c2c(O)ccc(O)c2C1=O [Shikonin]; settings: top dose 16 µM; top dose inferred
# Method: as §1
# Olaparib = compound: O=C(c1cc(Cc2n[nH]c(=O)c3ccccc23)ccc1F)N1CCN(C(=O)C2CC2)CC1 [Olaparib]
# Method: as §1
# SB-525334 = compound: Cc1cccc(-c2[nH]c(C(C)(C)C)nc2-c2ccc3nccnc3c2)n1 [SB-525334]; settings: top dose 20 µM; top dose inferred
# Method: as §1
# Wee1 inhibitor 681640 = compound: O=C1NC(=O)c2c1c(-c1ccccc1Cl)cc1[nH]c3ccc(O)cc3c21 [Wee1 inhibitor 681640]; settings: top dose 2 µM; top dose inferred
# Method: as §1
# VX-702 = compound: NC(=O)c1ccc(N(C(N)=O)c2c(F)cccc2F)nc1-c1ccc(F)cc1F [VX-702]; settings: top dose 2 µM; top dose inferred
# Method: as §1
# [1] = top dose 10 µM, screen: GDSC drug entry 1495
# [2] = top dose 5 µM, screen: GDSC drug entry 1017, top dose inferred
Cell Line,AUC (BMS-536924),IC50 (BMS-536924) [µM],AUC (BIRB 0796),IC50 (BIRB 0796) [µM],AUC (Shikonin),IC50 (Shikonin) [µM],AUC (Olaparib; [1]),IC50 (Olaparib; [1]) [µM],AUC (SB-525334),IC50 (SB-525334) [µM],AUC (Wee1 inhibitor 681640),IC50 (Wee1 inhibitor 681640) [µM],AUC (Olaparib; [2]),IC50 (Olaparib; [2]) [µM],AUC (VX-702),IC50 (VX-702) [µM]
"786-0 (kidney, adherent)",0.951,> 4,0.976,> 10,0.432,0.662,0.945,> 10,0.972,> 20,0.931,> 2,,,,
"A172 (glioma, adherent)",0.967,> 4,0.987,> 10,0.448,0.727,0.96,> 10,0.966,> 20,0.972,> 2,,,,
"BCPAP (thyroid, adherent)",0.918,> 4,0.963,> 10,0.437,0.684,0.952,> 10,0.98,> 20,0.974,> 2,,,,
"BHY (head and neck, adherent)",0.944,> 4,0.98,> 10,0.37,0.437,0.953,> 10,0.974,> 20,0.846,1.47,,,,
"BICR22 (head and neck, adherent)",0.941,> 4,0.9,> 10,0.661,3.01,0.933,> 10,0.983,> 20,,,0.922,> 5,0.951,> 2
"BPH-1 (prostate, adherent)",0.803,2.25,0.942,> 10,0.501,1.01,0.918,> 10,0.966,> 20,0.822,1.34,,,,
"C3A (liver, adherent)",0.943,> 4,,,0.414,0.576,0.96,> 10,0.988,> 20,0.982,> 2,0.988,> 5,0.987,> 2
"CHP-134 (neuroblastoma, suspension)",,,0.955,> 10,,,,,0.878,> 20,0.844,> 2,,,,
"HeLa (cervix, adherent)",0.871,3.46,,,0.524,1.16,,,0.969,> 20,0.988,> 2,,,0.972,> 2
"IGR-37 (melanoma, adherent)",0.802,1.76,,,0.324,0.34,0.981,> 10,0.743,5.75,0.861,1.46,0.989,> 5,,
"JHOS-4 (ovary, adherent)",,,0.909,> 10,,,0.893,> 10,,,,,0.979,> 5,0.98,> 2
"JHU-011 (head and neck, adherent)",0.979,> 4,0.954,> 10,0.357,0.405,,,0.986,> 20,,,0.944,> 5,0.947,> 2
"KNS-62 (lung squamous cell carcinoma, adherent)",0.972,> 4,0.915,> 10,,,0.867,> 10,,,,,0.953,> 5,0.975,> 2
"KYSE-510 (oesophagus, adherent)",0.957,> 4,,,0.336,0.383,0.975,> 10,0.975,> 20,0.927,> 2,0.988,> 5,0.991,> 2
"M14 (melanoma, adherent)",0.869,> 4,,,0.479,0.875,0.922,> 10,0.849,16.3,,,0.987,> 5,0.987,> 2
"MCF7 (breast, adherent)",0.777,1.67,,,0.453,0.742,,,0.986,> 20,0.909,> 2,,,0.986,> 2
"MDA-MB-231 (breast, adherent)",0.96,> 4,,,0.546,1.34,,,0.986,> 20,0.929,> 2,,,0.979,> 2
"MDA-MB-436 (breast, adherent)",0.963,> 4,0.923,> 10,0.571,1.64,,,0.902,> 20,,,,,0.984,> 2
"ME-180 (cervix, adherent)",0.908,> 4,,,0.35,0.375,0.956,> 10,0.867,19.4,0.94,> 2,0.985,> 5,0.973,> 2
"MKN45 (stomach, adherent)",0.97,> 4,,,0.449,0.701,0.961,> 10,0.89,> 20,,,0.981,> 5,0.929,> 2
"Mewo (melanoma, adherent)",0.959,> 4,,,0.502,1.01,0.945,> 10,0.94,> 20,,,0.978,> 5,0.977,> 2
"NCI-H838 (lung adenocarcinoma, adherent)",0.81,2.21,0.957,> 10,0.87,> 16,0.935,> 10,0.986,> 20,,,0.987,> 5,0.987,> 2

Cell Line,AUC (BMS-536924),IC50 (BMS-536924) [µM],AUC (BIRB 0796),IC50 (BIRB 0796) [µM],AUC (Shikonin),IC50 (Shikonin) [µM],AUC (Olaparib; [1]),IC50 (Olaparib; [1]) [µM],AUC (SB-525334),IC50 (SB-525334) [µM],AUC (Wee1 inhibitor 681640),IC50 (Wee1 inhibitor 681640) [µM],AUC (Olaparib; [2]),IC50 (Olaparib; [2]) [µM],AUC (VX-702),IC50 (VX-702) [µM]
"NCI-H1703 (lung adenocarcinoma, adherent)",0.877,> 4,,,0.604,2.06,,,0.971,> 20,0.956,> 2,,,0.982,> 2
"NCI-H2029 (small cell lung carcinoma, adherent)",0.965,> 4,,,0.892,15.6,0.982,> 10,0.985,> 20,,,0.992,> 5,0.992,> 2
"NCI-H2030 (lung adenocarcinoma, adherent)",0.827,2.92,0.983,> 10,0.422,0.593,,,0.972,> 20,0.835,1.58,,,,
"OAW-42 (ovary, adherent)",0.865,> 4,0.985,> 10,0.473,0.839,0.9,> 10,0.978,> 20,,,0.965,> 5,0.985,> 2
"OCUM-1 (stomach, adherent)",,,0.929,> 10,0.778,7.23,0.936,> 10,0.987,> 20,,,0.957,> 5,0.987,> 2
"OSC-19 (head and neck, adherent)",0.939,> 4,0.983,> 10,0.346,0.366,0.917,> 10,0.952,> 20,,,,,,
"OVCAR-5 (ovary, adherent)",0.783,2.05,0.951,> 10,0.51,1.07,0.855,> 10,0.953,> 20,,,0.976,> 5,0.982,> 2
"PA-TU-8988T (pancreas, adherent)",0.884,> 4,,,0.527,1.19,0.922,> 10,0.979,> 20,,,0.986,> 5,0.982,> 2
"PANC-08-13 (pancreas, adherent)",0.846,> 4,,,0.686,3.88,0.931,> 10,0.912,> 20,,,0.965,> 5,0.973,> 2
"PC-3 (prostate, adherent)",0.975,> 4,,,0.515,1.11,,,0.81,13.4,0.954,> 2,,,,
"RCC-MF (kidney, adherent)",0.9,> 4,0.844,> 10,,,0.964,> 10,0.889,> 20,,,0.967,> 5,0.953,> 2
"RMG-I (ovary, adherent)",0.869,> 4,,,0.446,0.696,0.929,> 10,0.691,4.74,,,0.983,> 5,0.983,> 2
"SAT (head and neck, adherent)",,,0.965,> 10,,,0.884,> 10,0.953,> 20,,,0.83,> 5,0.901,> 2
"SK-MEL-24 (melanoma, adherent)",0.911,> 4,,,0.559,1.51,0.929,> 10,0.849,> 20,,,0.98,> 5,0.978,> 2
"SKN-3 (head and neck, adherent)",0.912,> 4,0.978,> 10,0.707,4.32,0.932,> 10,0.978,> 20,,,0.887,> 5,0.906,> 2
"SU-DHL-5 (B-cell lymphoma, suspension)",0.804,1.44,,,0.161,0.138,0.702,1.96,0.829,8.5,0.979,> 2,0.883,3.12,0.988,> 2
"SW756 (cervix, adherent)",0.949,> 4,0.823,7.44,0.438,0.656,0.934,> 10,0.957,> 20,,,0.984,> 5,0.984,> 2
"SW1990 (pancreas, adherent)",0.954,> 4,,,0.514,1.1,0.916,> 10,0.978,> 20,,,0.977,> 5,0.984,> 2
"U-266 (myeloma, semi-adherent)",0.922,> 4,,,,,0.962,> 10,,,0.869,> 2,0.97,> 5,0.971,> 2
"UM-UC-3 (bladder, adherent)",0.987,> 4,,,0.477,0.867,0.906,> 10,0.943,> 20,,,0.987,> 5,0.987,> 2
"UMC-11 (lung carcinoid, adherent)",0.99,> 4,,,0.801,6.87,0.957,> 10,0.975,> 20,,,0.991,> 5,0.976,> 2
"VM-CUB-1 (bladder, adherent)",0.987,> 4,0.955,> 10,0.501,1,,,0.985,> 20,0.923,> 2,,,,

# Source: the supplement of paper PMC4967469
